Laboratory results: PubChem BioAssay AID1347416 (National Center for Advancing Translational Sciences (NCATS), 2020)
In all, about 4,100 compounds went through this assay and about 1,600 (39%) were called active. The inconclusive results got no clear call from the source; some entries with a clear call stand among them for comparison. The call rests on the fitted dose curve; in most records, active means well fitted inhibition curve with a large enough effect; inconclusive means small, poorly fitted or top-dose-only effect; inactive means no such curve, though single readings can be large or run the other way. Where the call is inconclusive, the potency comes from a doubtful curve fit.

Test: qHTS Validation assay for Inhibitors of Plasmodium falciparum Dd2 growth in vitro; further: nearly all actives have a fitted effect of over 70% in size
Conditions: P. falciparum Dd2 in RBCs, SYBR Green growth, 72 h; activity change, negative = inhibition: at 28.7 µM (top of the series) unless noted
In short: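 P. falciparum Dd2-infected red blood cells (2.5% hematocrit, 0.3% parasitemia) grown 72 h at 37 °C under 5% O2 with compounds in a titration, 29 uM to 0.5 nM final. Growth read as SYBR Green-1 fluorescence after ~16 h lysis; artesunate 300 nM as positive control.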
On the % scale 0 is the no-effect control and ±100 the full control effect; potency means the concentration at half of the fitted maximal effect; tags describe the fitted curve by direction and shape.

Activity change, negative = inhibition, inactive:
OC[C@H]1CCN(Cc2ccc(-c3cccc(Cl)c3Cl)o2)C[C@@H]1O -7.08%
COc1ccc(-c2nnc([C@H]3CCN(c4ncccn4)C3)o2)cc1 7.2% [at 43.1 µM]
COc1cc(SC)ccc1C(=O)Nc1nc2ccccc2[nH]1 -19.7%
Cc1cccc(OCCc2noc(C3CCN(C(=O)c4n[nH]c(=O)c5ccccc45)C3)n2)c1 (stereo not given) -9.66%
CC(=O)Nc1ccc(CN2CCn3c(nn(-c4ccc(Cl)cc4)c3=O)C2)cc1 14.2%
CCOc1ccc(-c2cc3c(=O)n(CCNC(=O)c4cccc(C#N)c4)ccn3n2)cc1 -6.7%
CNC(=O)[C@@H]1C[C@H](Oc2ccccc2)CN1C(=O)c1cc2ccccc2[nH]1 5.84%
COc1nc(N(C)S(=O)(=O)c2ccc(C)cc2)nc(C)c1Br 21.9%
COc1cnc(-c2ccccn2)nc1Oc1ccc(C(C)(C)C)cc1 66.3%
O=C1NCc2ccccc2CC12CCN(Cc1ccccc1F)CC2 9.53%
COc1cccc(-c2ccc3c(n2)CNC(=O)CO3)c1 -22.2% [at 57.5 µM]
CS(=O)(=O)N1CCC(OC2CCN(C(=O)Nc3cc(F)ccc3F)CC2)CC1 11.4%
COc1ccc2ncc3c(-c4ccc(C)c(C)c4)nn(CC(=O)NC4CCCCC4)c3c2c1 31%
O=C(Cn1cccc1-c1nc(-c2ccc(F)cc2)no1)NCCc1ccccc1 0.293%

Potency, inconclusive:
COc1ccc(-c2noc(-c3nnn4c3COC(c3ccc(Cl)cc3)C4)n2)cc1OC (stereo not given) 18.8 µM [inhibitor, single point]
COc1ccc(-c2cc3nc4c(c(=O)n3[nH]2)CN(C(=O)c2ccc(Cc3c(C)noc3C)o2)CC4)cc1 15 µM [inhibitor, single point]
CCC(C)NC(=O)c1ccc(-c2nnc3ccc(NC(=O)C4CC4)cn23)cc1 (stereo not given) 8.41 µM [inhibitor, partial curve, poor fit]
COc1ccccc1CNC(=O)CCC1N=C2c3ccccc3N=C(SCc3ccccc3Cl)N2C1=O (stereo not given) 23.7 µM [inhibitor, single point]
CCOC(=O)C1CCN(C(=O)c2cc(-c3ccncc3)cn2Cc2ccc(C)cc2)CC1 15 µM [inhibitor, single point]
Cn1c(C(=O)NC(C)(C)C)cc2c1CCN(Cc1ccc(F)cc1)C2 13.3 µM [inhibitor, single point]
COC(=O)c1cc2oc(C)cc2n1CC(=O)Nc1ccc(OC)c(OC)c1OC 21.1 µM [inhibitor, single point]
COc1ccc(CN2CCC(O)(c3csc(CN4CCc5ccccc5C4)n3)CC2)cc1 13.3 µM [inhibitor, partial curve, poor fit]
COc1ccccc1CCC(=O)N1CCCN(c2cc(-c3ccc(Cl)cc3)[nH]n2)CC1 18.8 µM [inhibitor, single point]
COCCOC1CN(C2CCN(CC3CCCCC3)CC2)C12CCCCC2 (stereo not given) 15 µM [inhibitor, single point]
COCC1CN(Cc2cc(F)cc(Br)c2)CC12CCNCC2 (stereo not given) 9.44 µM [inhibitor, partial curve]
OCCNc1nc(Nc2ccc(O)cc2)nc2ccccc12 21.1 µM [inhibitor, single point]
Cn1c(N=Nc2ccccc2)nc2ccccc21 0.842 µM [inhibitor, full curve]
COC(=O)c1ccc2nc(CO[C@H]3CN(Cc4cn(C)c5ccccc45)C[C@H]3F)[nH]c2c1 13.3 µM [inhibitor, partial curve]
CCOC(=O)CC(=O)CSc1nc2ccccc2c(=O)n1-c1ccc(C(=O)N2CCOCC2)cc1 13.3 µM [inhibitor, partial curve]
CCc1nc(Nc2ccc3nccnc3c2)c2oc3ccccc3c2n1 2.37 µM [inhibitor, full curve]
Cc1cc(C)n(-c2nc3ccccc3c(=O)n2OCC#N)n1 4.73 µM [inhibitor, partial curve, poor fit]
CO/N=C1\CN(c2nc3c(cc2F)c(=O)c(C(=O)O)cn3C2CC2)CC1CN (stereo not given) 9.44 µM [inhibitor, partial curve]
Cc1ccc(-c2nc(-c3cccnc3)no2)c(C)c1 8.41 µM [inhibitor, single point]
COc1cc2c(cc1OC)CN(C(=O)C[C@@H]1CCNC[C@@H]1Cc1cc(-c3ccccc3)on1)CC2 21.1 µM [inhibitor, single point]
Cc1ccc(NC(=O)c2cc(-c3cc(Cl)ccc3O)n[nH]2)cc1C 8.41 µM [inhibitor, partial curve, poor fit]
O=C(c1ccccc1)N1Cc2ccccc2CC2(CCN(Cc3ccccn3)C2)C1 (stereo not given) 16.8 µM [inhibitor, single point]
O=C(Cc1ccc(Cl)cc1)NCc1nnc2cc(-c3nc(C4CC4)no3)ccn12 7.5 µM [inhibitor, full curve]
CN1CCC2(C1)CN(Cc1ccccc1)c1ccc(C(=O)Nc3ccn(C)n3)cc12 (stereo not given) 34.4 µM [inhibitor, single point]

Potency, active:
C=CCOC(=O)C1=C[C@@H](c2ccc(C(F)(F)F)cc2)[C@H](CCCO)[C@@H](OCC)O1 7.5 µM
COc1ccccc1N1CCN(CCCNC(=O)c2cnn(-c3cccc(Cl)c3)c2C2CCN(C(=O)OC(C)(C)C)CC2)CC1 2.11 µM
CCOc1ccc(NS(=O)(=O)c2csc(C(N)=O)c2)cc1 7.5 µM
Cc1ccc(S(=O)(=O)N[C@@H]2CN(C)C[C@H]2CN(C)C)cc1F 15 µM
CCCCOc1ccc(NC2=NC3(CCCCC3)N=C(N)N2)cc1 8.41 µM
O=C(Nc1ccc(-c2csc(Nc3ccccc3)n2)cc1)c1cc([N+](=O)[O-])cc(C(F)(F)F)c1 2.11 µM
COc1ccccc1Nc1cnc2ccc(-c3ccc(F)cc3)nn12 6.85 µM
